Measured values from PubChem BioAssay AID588855 (National Center for Advancing Translational Sciences (NCATS), 2011).
Values joined by “and” are separate entries in the source; they are usually repeats but may differ in a detail not shown here. Identical values can stand only once. The whole screen tested about 410,000 compounds, of which about 5,000 (1.2%) were called active. The shares of active, inactive and inconclusive entries below differ from those in the screen. Calls come from the whole dose curve; as a rule, active = well fitted inhibition curve with a large enough effect; inconclusive = small, poorly fitted or top-dose-only effect; inactive = no such curve, though single readings can be large or run the other way. Potencies of inconclusive entries are doubtful fits and often do not repeat.
Potency is the fitted concentration of half-maximal effect; tags give direction and shape of the fitted curve.

Experiment: qHTS for Inhibitors of TGF-b; note: nearly all actives have a fitted effect of over 65% in size
Settings: HepG2 CAGA-GFP TGF-b/SMAD3 reporter, GFP fluorescence, 18 h, TGF-beta stimulated, 500 pg/mL final; series mostly up to 46.1 µM; activity, negative = inhibition: at the top concentration
Excerpt: TGF-b is a main component in the TGF-b signaling pathway which plays diverse roles in cellular and development pathways. TGF-b is the mediated by the transcription factors Smads. Although the Smad-dependent pathway is the primary canonical TGF-b signaling node, TGF-b1 can also activate alternative signaling pathways, including those involving MAPK (ERK, JNK and p38). This interaction may mediate or enhance Smad-dependent responses, or can exert Smad-independent effects. The complexity of this signaling cascade allows the TGF-b superfamily to perform unique, overlapping or redundant functions. We believe that targeting the TGF-beta pathway at the Smad-transcription factor level may eliminate the consequences of disrupting the entire pathway and offer specificity without affecting other signaling pathways. Smad3 is the primary transducer of TGF-b's signals and Smad3 regulates many functions attributed to TGF-b signaling. We hypothesize that Smad3 inhibitors will selectively eliminate Smad3-specific TGF-beta signals without undesired off-target effects. We aim to identify Smad3-small molecule antagonists using a quantitative high throughput screening (qHTS) approach.
A high-throughput assay was developed to screen the NIH Molecular Libraries Small Molecule Repository (MLSMR). This is a cell based assay, where TGF-b is tagged with GFP. A counterscreen is run that looks at cytotoxicity (please see summary AID).
MH087449NIH Chemical Genomics Center [NCGC]
NIH Molecular Libraries Probe Centers Network [MLPCN]
Assay Submitter (PI): Sushil Rane, National Institute of […]
Suspensions of trypsinized HEPG2 CAGA-GFP cells were dispensed into white, tissue culture-treated, solid 1536-well plates at 5uL/well (1000 cells/well final concentration) in DMEM medium supplemented with 1% FBS. Plates were incubated at 37 degrees C for 2 hours, after which 23 nL of compounds or DMSO were delivered to each well using a pin tool. One uL of recombinant TGF-beta in DMEM (1% FBS) was then dispensed (500 pg/mL final concentration), and plates were incubated at 37 degrees C for 18 hours. The plates were measured on an Acumen eX3 Explorer plate reader for GFP fluorescence (ex488/em500-530). GFP values were calculated by determining the mean GFP fluorescence of individual cells, and compiling these values for each well to determine a total well GFP signal. The %Activity was determined from the corrected fluorescence values. A titration of the known TGF-B inhibitor SB431542 was included to monitor plate performance, while unstimulated HEPG2 (-TGF-B) control wells were used to normalize %Activity of identified inhibitors; unstimulated wells corresponded to 100%Activity (full inhibition), while stimulated cell controls (+DMSO) were used to normalize 0%Activity (no inhibition).
Concentration-response curves were fitted to the signals arising from the resulting fluorescence. The concentration-effect curves were then classified based on curve quality (r2), response magnitude and degree of measured activity, and compounds were subsequently categorized based on their curve class.
With `O=S(=O)(NCCc1nnc2ccc(SCc3ccccc3Cl)nn12)c1ccccc1` the Potency was inconclusive: 8.91 µM [inhibitor, partial curve, poor fit].
With `Cc1cc(N2CCC(C)CC2)nc2ccc(NC(=O)Cc3ccccc3Br)cc12` the Potency was inconclusive: 6.31 µM [inhibitor, single point].
For `COc1cc2nc(Nc3cccc(F)c3)nc(N)c2cc1OC`, the Potency was inconclusive: 35.5 µM [inhibitor, single point] and inconclusive: 15.8 µM [inhibitor, single point].
For `CCOC(=O)[C@@H]1[C@H]2COc3ccc(Br)cc3[C@H]2N2C(=O)N(c3ccc(Cl)cc3)C(=O)[C@@]12C`, the Potency was inconclusive: 15.8 µM [inhibitor, single point].
For `Cc1cccc2nc(-c3ccccn3)c(Nc3ccccc3)n12`, the Potency was inconclusive: 1 µM [inhibitor, full curve].
In the case of `c1ccc(SCc2nc(-c3cccnc3)no2)cc1`, the Potency is reported as inconclusive: 2.82 µM [inhibitor, single point].
In the case of `Cn1c(=O)c2c(nc(N/N=C/c3cccs3)n2Cc2ccccc2)n(C)c1=O`, the “activity, negative = inhibition” value is reported as inactive: -23.7%.
For `CC(=O)Nc1ccc(NC(=O)c2ccccc2C)cc1`, the “activity, negative = inhibition” value was inactive: -5.14%.
For `Cc1nn(C)cc1S(=O)(=O)NC1CCCC1`, the Potency was inconclusive: 0.355 µM [inhibitor, full curve, poor fit].
With `CC(=O)C1=C(O)C(=O)N(c2cccc(Br)c2)C1c1ccc(Br)cc1` (stereo not drawn) the “activity, negative = inhibition” value was inactive: -0.594%.
For `O=C(Nc1ccc(Cl)cc1)NC1CCCC1Cc1ccco1` (stereo not drawn), the Potency was inconclusive: 20 µM [inhibitor, single point].
For `Cc1ccc(NC(=O)CN(Cc2ccccc2)S(=O)(=O)c2ccc3nc(C)sc3c2)c(C)c1`, the “activity, negative = inhibition” value was inactive: -14.9%.
With `O=C(O)CSc1nnc(-c2ccccc2)c(-c2ccccc2)n1` the “activity, negative = inhibition” value was inactive: 2.17%.
In the case of `CC1(C)CC(O)C(CCC(O)c2ccccc2)C(C)(C)N1` (stereo not drawn), the Potency is reported as inconclusive: 8.91 µM [inhibitor, partial curve, poor fit].
For `Cc1ccc(C(=O)NCc2ccc3c(c2)OCO3)c(Cl)c1`, the “activity, negative = inhibition” value was inactive: 0.123%.
In the case of `COc1cc2c(cc1OC)C(COc1ccc(C(C)C)cc1)NCC2` (stereo not drawn), the Potency is reported as inconclusive: 35.5 µM [inhibitor, single point].
For `N/C(=N\OC(=O)c1cccc(Cn2cc(C(F)(F)F)ccc2=O)c1)c1ccccc1`, the Potency was inconclusive: 35.5 µM [inhibitor, single point].
With `Cc1ccsc1C(=O)Nc1nnc(-c2ccco2)o1` the Potency was inconclusive: 10 µM [inhibitor, single point].
For `CCCCSCCCNC(=O)CS(=O)Cc1nc(-c2cccc(C)c2)oc1C` (stereo not drawn), the Potency was inconclusive: 35.5 µM [inhibitor, single point].
In the case of `Cc1cn(CCC(=O)Nc2ccccc2N2CCOCC2)c2ccccc12`, the Potency is reported as inconclusive: 3.98 µM [inhibitor, single point].
With `CCOc1cccc(NCc2cc3c(C(C)(C)C)nn(-c4ccccc4)c3[nH]c2=O)c1` the Potency was inconclusive: 35.5 µM [inhibitor, single point].
With `CC(C)c1cc(-c2cc(-c3ccc(Cl)cc3)on2)nc(NCC2CC2)n1` the Potency was inconclusive: 0.1 µM [inhibitor, full curve, poor fit].
For `CCN(CC)S(=O)(=O)c1ccc(N2CCCC2)c(NC(=O)c2ccccc2OC)c1`, the Potency was inconclusive: 25.1 µM [inhibitor, single point].
For `O=C(Nc1ccc(NC(=O)c2ccco2)cc1)c1cnccn1`, the Potency was inconclusive: 2.51 µM [inhibitor, partial curve, poor fit].
In the case of `Cc1ccc(-n2nc3c(=O)n(CCCC(=O)NCc4ccc(Cl)cc4)nc(C)c3c2C)cc1`, the Potency is reported as inconclusive: 2.51 µM [inhibitor, partial curve, poor fit].
For `CCn1c(CN2CCN(C)CC2)nc2cc(NC(=O)c3ccc([N+](=O)[O-])cc3)ccc21`, the Potency was inconclusive: 35.5 µM [inhibitor, single point].
With `Cc1cccc(N2CCN(C(=O)/C=C/c3cccs3)CC2)c1C` the “activity, negative = inhibition” value was inactive: 12.8%.
For `Cc1ccc(S(=O)(=O)CCC(=O)Nc2nc(-c3ccccn3)cs2)cc1`, the “activity, negative = inhibition” value was inactive: -28%.
In the case of `CCCCCCSc1ccc([C@@H]2[C@@H]3C(=O)N(C)C(=O)[C@@H]3[C@]3(C(=O)OC)CCCCN23)cc1OC`, the Potency is reported as inconclusive: 20 µM [inhibitor, partial curve, poor fit].
With `CCOc1ccccc1N1CSC2=C(C#N)C(c3c(OC)ccc4ccccc34)CC(=O)N2C1` (stereo not drawn) the Potency was inconclusive: 12.6 µM [inhibitor, single point].
In the case of `CCOCCCN(Cc1ccco1)C(=O)c1cc2c(s1)-c1c(C)cccc1OC2`, the Potency is reported as inconclusive: 35.5 µM [inhibitor, single point].
With `CCOc1ccc(Nc2nc3ccccc3n3cnnc23)cc1` the Potency was inconclusive: 22.4 µM [inhibitor, partial curve, poor fit].
For `CC(C)Oc1ccc(CNC(=O)C2=Cc3ccccc3OC2)cc1`, the Potency was inconclusive: 7.08 µM [inhibitor, partial curve].
